Here are results for 14 molecules from PMC12136788.

Some of the results follow.

First the molecules themselves.
B1: chr19:57593639:57593745:+|3pUTR|ENSG00000171649|unk|total|mutant (ssRNA)
RNA: GGGAGUUCUACAGUCCGACGAUCUGAACCUUCUUAUUUCUCUACAUUCUUGCCAUACUUGGUAUGGUCCGUCUUUUUAAUUUCCGUUGUUUUAACCGCUGUAUAACCGCAUCUGUCUGUGAUUUUAUUGCAUUUUUCUGGUAUCAACAGAGGAUUGAGCAUCA
B2: chr4:186618492:186618593:-|CDS|ENSG00000083857|msi1|total|mutant (ssRNA)
RNA: GGGAGUUCUACAGUCCGACGAUCGUAAUCACUACAAAGGAGAGCCUCAUUGGCUUGGAAAAUGAAUUCUUCACUUUCUUUGUCCGAGCUGUGGAUAAUGGGUCUCCAUCAAAAGAAUCUGUUGUUCUUGUCUAUGUUAAAAUCCAACAGAGGAUUGAGCAUCA
B3: ENSG00000198589:be:win_4501|CDS|ENSG00000198589|bound_else_gene|NA|bound_elsewhere_windowed (ssRNA)
RNA: GGGAGUUCUACAGUCCGACGAUCAGAGAUCUUGACAGGCUUCUACAGGACAUGGAUAUUAAUCGGCUUAGGGCAGUUGUUUUCAGAGACAUAGAGGAUAGCAAACAAGCUCAAUUUUUAGCCUUGGCAGUAGUAUACUUUAUCCAACAGAGGAUUGAGCAUCA
B4: chr5:133074000:133074114:+|CDS|ENSG00000170606|unk|FALSE|unique (ssRNA)
RNA: GGGAGUUCUACAGUCCGACGAUCUCUUGCAUAUGGAAUCUAUAAGCAGGAUCUUCCUGCCUUAGAAGAGAAACCAAGAAAUGUAGUUUUUGUAGACAUGGGCCACUCUGCUUAUCAAGUUUCUGUAUGUGCAUUUAAUAGAGGCAACAGAGGAUUGAGCAUCA
B5: ENSG00000107863:be:win_5851|CDS_3pUTR|ENSG00000107863|bound_else_gene|NA|bound_elsewhere_windowed (ssRNA)
RNA: GGGAGUUCUACAGUCCGACGAUCAAAGCAGAGUUUCAUCCCUGUCUUUAAACUGGGGGUAUGUCCACUCUAGCAAGUAAAAAAACUACUGUUACACGUUCCAGUAACUCUGUCAAUAUUUUCUUGUAUCAGAAUUGUUAUUAUCAACAGAGGAUUGAGCAUCA
B6: chr11:8612036:8617995:-|three_prime_utr|ENSG00000166436|control|control|control (ssRNA)
RNA: GGGAGUUCUACAGUCCGACGAUCCCCAUACUGUCGACCAUUCCUCCCCAUCUUGCAGCUUAUCCUCUUCAGAGUGUGGAUGGUAGAUGAGUCUUGUUGAACUGUGUAGUGCUCUUCUUUGCCAUUUGCAUCUACAGCAUUUAUCAACAGAGGAUUGAGCAUCA
B7: chr7:139045324:139045425:-|3pUTR|ENSG00000105939|msi1|FALSE|bound_elsewhere (ssRNA)
RNA: GGGAGUUCUACAGUCCGACGAUCAGUUCAAAACCGCUGUCAUGGCCCCAUGUGAUCUCUCCCUCCCCUACCCCUCUAUCAUUUAGUUUCUUCUGCGCAAGCCACUCUGGCUUCCUUUCAGUUUUGUGGUUCCCAUUUUUAGCUCAACAGAGGAUUGAGCAUCA
B8: ENSG00000078043:stop:overlap|stop_codon|ENSG00000078043|stop_codon|NA|stop_codon (ssRNA)
RNA: GGGAGUUCUACAGUCCGACGAUCGGAAAUGCAUCUUUAUGUCAGAAACACAAAGCAGCCCAACCAAAGGGUUUGUUAAUUUAUAGUUCACUAUUGUUCAUUACCCUUGCAACUAAUUGCUCUUGGAUAGAUUUAUAAAUGUCUCAACAGAGGAUUGAGCAUCA
B9: ENSG00000198589:be:win_3451|CDS|ENSG00000198589|bound_else_gene|NA|bound_elsewhere_windowed (ssRNA)
RNA: GGGAGUUCUACAGUCCGACGAUCGAUGACAAAUUAAUAUUUCAAGAAGGAAAACCUGUUACUGAAAAGCAAACUGAUACUGAAACUCAAGAUUCUAAAGAUUCUGGAAUUCAGACUAUGACAGCAUCAGGGUCUUCAGCUAUGCAACAGAGGAUUGAGCAUCA
B10: chr6:75256125:75256201:-|CDS_3pUTR|ENSG00000112697|msi1_unk|total|mutant (ssRNA)
RNA: GGGAGUUCUACAGUCCGACGAUCUUUGGGGAUUGCUUACAUCGCUGUUGGAUCCAUCUCCUUCCUUCUGGGAGUUGUACUGCCCGUAAUUAAUCAUAAAUACCGAAACAGCCGUAAUACAGCUGACAUUACCAUUUAAUUUUACAACAGAGGAUUGAGCAUCA
B11: chr14:106537809:106538116:-|CDS|ENSG00000211964|control|control|control (ssRNA)
RNA: GGGAGUUCUACAGUCCGACGAUCUGGGUCCGCCAGGCUCCAGGGAAGGGGCUGGAGUGGGUUUCAUACAUUAGUAGUAGUGGUAGUACCAUAUACUACGCAGACUCUGUGAAGGGCCGAUUCACCAUCUCCAGAGACAACGCCCAACAGAGGAUUGAGCAUCA
B12: chr7:13894654:13894755:-|3pUTR|ENSG00000006468|msi1|total|mutant (ssRNA)
RNA: GGGAGUUCUACAGUCCGACGAUCUAUUCUCUUUCAUGCUGAAUUUACUAUGACCAUUUAUAAGCAGUGCAGUUAACUACAGACCGCAUUUCAGGACAAAACCGAUGACUCAAACCAUUUAUUGCUUAAAAAACCGCUUACGCCCAACAGAGGAUUGAGCAUCA
B13: ENSG00000198589:be:win_9301|3pUTR|ENSG00000198589|bound_else_gene|NA|bound_elsewhere_windowed (ssRNA)
RNA: GGGAGUUCUACAGUCCGACGAUCAGUACCAAAGCUCACUACUGCGGUUUGCCUGUGCCUGGACAAUGAGGCGGAGCCACUGUUGUUUUGUUGGGGCACCCCCUUCCCUCCCCGGGUUUGCAAAUAGAGGCUACCGGGUGCUGUCAACAGAGGAUUGAGCAUCA
B14: chr15:77046177:77046188:-|3pUTR|ENSG00000140391|msi1_unk|total|mutant (ssRNA)
RNA: GGGAGUUCUACAGUCCGACGAUCUUAAUCAAAGUUGGCUUUACCGGAGGAGUAUAAUGUAUGCACUACUGUUUUAAAAGAAUCCGUGUGAGUGUGUUUUUGUAUGAAUGAGCCCAUUCAUGGUAAGUCUUAAGCUUGUUGGAACAACAGAGGAUUGAGCAUCA

This test deals with MSI1 full-length (mouse, UniProt Q61474 1-362). As to the kind of experiment: nsRBNS (natural sequence RNA bind-n-seq); RBNS binding buffer (assumed for nsRBNS): 25 mM Tris pH 7.5, 150 mM KCl, 3 mM MgCl2, 0.01% Triton X-100, 500 ug/ml BSA, 20 U/ml SUPERase-In, 4 C; UNK is unkempt and MSI1 is Musashi-1; names of the RNAs are library labels; protein concentration not given here; high values mean tight binding.
Sequence of UniProt Q61474 (Q61474 whole entry): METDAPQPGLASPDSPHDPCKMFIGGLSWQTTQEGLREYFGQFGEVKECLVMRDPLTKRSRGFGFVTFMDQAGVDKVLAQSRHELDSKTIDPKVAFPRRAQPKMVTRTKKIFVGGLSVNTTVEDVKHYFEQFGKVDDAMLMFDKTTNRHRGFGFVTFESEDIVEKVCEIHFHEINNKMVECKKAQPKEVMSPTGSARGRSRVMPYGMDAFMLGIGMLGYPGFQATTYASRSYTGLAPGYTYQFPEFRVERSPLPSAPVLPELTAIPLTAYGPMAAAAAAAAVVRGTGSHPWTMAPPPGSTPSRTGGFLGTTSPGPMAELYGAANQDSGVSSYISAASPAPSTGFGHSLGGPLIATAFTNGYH
B1 had a binding signal of 1.4 enrichment R. In the case of B2 it was 0.378 enrichment R. Molecule B3 showed a binding signal of 5.05 enrichment R. In the case of B4, the binding signal is 3.34 enrichment R. In the case of B5 it was 0.329 enrichment R; in that of B6, 0.459 enrichment R; in that of B7, 11.3 enrichment R. In the case of B8 it was 1.97 enrichment R; in that of B9, 0.364 enrichment R; in that of B10, 0.387 enrichment R.

With B11, the binding signal was found to be 0.494 enrichment R. In the case of B12 it was 0.94 enrichment R; in that of B13, 0.999 enrichment R; in that of B14, 0.367 enrichment R.
